For 172 sequences, binding signal (normalized occupancy) results are on record in PMC4242493.

The list shows a part of the results. The list includes weakly bound sequences.

For the assay, the target named is MaxL homodimer (UniProt P61244). In words: universal protein-binding microarray (PBM). The following applies: PBS-based mixture, 10 nM His-tagged protein dimer, 2% milk, 200 ng/uL BSA, 50 ng/uL salmon testes DNA, 0.02% TX-100; detection with Alexa 488 anti-His …; high values mean tight binding; most listed sequences are background and not binding sites; double strand, one strand shown.
Chain of UniProt P61244 (P61244 whole entry): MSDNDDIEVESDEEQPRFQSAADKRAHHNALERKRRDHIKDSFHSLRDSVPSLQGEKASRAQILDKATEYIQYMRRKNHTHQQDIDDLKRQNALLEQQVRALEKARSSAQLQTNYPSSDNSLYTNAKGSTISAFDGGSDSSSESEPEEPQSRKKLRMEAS
Turning to CAACGCGC, the binding signal (normalized occupancy) is 0.0787.

Consider ACCTCCGC, for which the binding signal (normalized occupancy) was found to be 0.0705. As for ACAGTACA, the binding signal (normalized occupancy) was 0.0836. Take AAACAGGT: the binding signal (normalized occupancy) worked out at 0.0767. With ATAGACGC, the binding signal (normalized occupancy) worked out at 0.0812. With AATTATAG, the binding signal (normalized occupancy) is 0.0842.

Consider GGCGTCCA, for which the binding signal (normalized occupancy) stood at 0.07.

As to CCATGGCC, the binding signal (normalized occupancy) was determined as 0.0766. ACCTAGCC: the binding signal (normalized occupancy) is 0.0695.

Consider TACGTCTA, for which the binding signal (normalized occupancy) worked out at 0.0778. On to CGAATCTA, for which the binding signal (normalized occupancy) was determined as 0.0681. With AGCGCTTG, the binding signal (normalized occupancy) was 0.0662.

Consider ACACCCCG, for which the binding signal (normalized occupancy) was 0.081. Turning to CAGTGCGA, the binding signal (normalized occupancy) was 0.0749. Regarding GATTTGCA, the binding signal (normalized occupancy) amounted to 0.0765. In the case of TAGTAAGA, the binding signal (normalized occupancy) was 0.0762.

Regarding AGGTACTA, the binding signal (normalized occupancy) was 0.0756. With GTATGTGA, the binding signal (normalized occupancy) was 0.0798. Turning to ATTGGATG, the binding signal (normalized occupancy) was determined as 0.0775. As to AGGTAATC, the binding signal (normalized occupancy) worked out at 0.0761. Regarding GATTAGAC, the binding signal (normalized occupancy) was found to be 0.0752. For GCTCGCCA the value was 0.0723; for AAAAGCCG, 0.0649. Consider GTTGAATA, for which the binding signal (normalized occupancy) worked out at 0.0772. For ACATAGTG, the binding signal (normalized occupancy) is 0.0802. Regarding GCGACACA, the binding signal (normalized occupancy) stood at 0.0786. For the sequence AGACAGAG, the binding signal (normalized occupancy) stood at 0.0712. Take AGGGAACT: the binding signal (normalized occupancy) was determined as 0.0689. AGATTGGG: the binding signal (normalized occupancy) is 0.0755. With CTGTTCCA, the binding signal (normalized occupancy) came to 0.0746.

Take CGCATCAC: the binding signal (normalized occupancy) worked out at 0.0793. The value for AGAGCACT was 0.0735; that for CTTACGGC was 0.0685; that for CGCCATAG was 0.0742.

As to AGGACAAG, the binding signal (normalized occupancy) turned out to be 0.0738. As for AACGCTAT, the binding signal (normalized occupancy) was 0.0773. For CGTCACTC the value was 0.074. As to GCTGCGCC, the binding signal (normalized occupancy) came to 0.0683. The value for AGTAGGTG was 0.0747. As to CGGAGGTA, the binding signal (normalized occupancy) came to 0.0743. The value for CCGCCGAG was 0.0652; that for TCATCGAA was 0.0731.

For the sequence AAATCTCG, the binding signal (normalized occupancy) was determined as 0.0765.

With AGTCGTCC, the binding signal (normalized occupancy) came to 0.0751. In the case of CCGGATAG, the binding signal (normalized occupancy) stood at 0.0739. Turning to CGAGCCAC, the binding signal (normalized occupancy) is 0.0769. The value for AGACCAAC was 0.0715; that for AGAACTCG was 0.0748; that for GCCGAAAA was 0.0676. As to CGTCCGCC, the binding signal (normalized occupancy) stood at 0.0713. For ACGGTTAA the value was 0.0751. CTGGAGGA: the binding signal (normalized occupancy) came out at 0.0754. Turning to CTTTCTGA, the binding signal (normalized occupancy) is 0.0702. The value for GGAATGAC was 0.0748; that for CCCCTCGA was 0.0737; that for GCAATTTA was 0.0738. As for CTGCGGCA, the binding signal (normalized occupancy) amounted to 0.0732.

For the sequence GTATTCAA, the binding signal (normalized occupancy) was 0.0744. On to ATTTAGAG, for which the binding signal (normalized occupancy) is 0.0735.

Consider AAAGTAGC, for which the binding signal (normalized occupancy) amounted to 0.0741. Consider CCAGTGTA, for which the binding signal (normalized occupancy) came to 0.0747.

Consider CATCGACG, for which the binding signal (normalized occupancy) came to 0.0723. As to ATTCAGCA, the binding signal (normalized occupancy) was 0.0725. For CGCTCTCC the value was 0.072. On to ATCATCGG, for which the binding signal (normalized occupancy) turned out to be 0.0757. ACGGCTTC: the binding signal (normalized occupancy) was found to be 0.0707.

As for GCCTTTTA, the binding signal (normalized occupancy) was 0.0745.

On to GCCTAATA, for which the binding signal (normalized occupancy) stood at 0.0741. With CGGGAATC, the binding signal (normalized occupancy) was determined as 0.0688.

With AGGGGCCC, the binding signal (normalized occupancy) was 0.0684.

Regarding GGCGCCAC, the binding signal (normalized occupancy) is 0.0741.

For the sequence AGATGTTA, the binding signal (normalized occupancy) came out at 0.0811. On to ACCAAAAT, for which the binding signal (normalized occupancy) was 0.0775. For GAAGATCA the value was 0.0746; for CCGGAACG, 0.0685. Turning to CCCATCAA, the binding signal (normalized occupancy) was 0.0771.

In the case of AGGCCAAT, the binding signal (normalized occupancy) was 0.0728. The value for ACTCAGGG was 0.0699; that for ACCGCGTG was 0.182; that for GGTAGGTA was 0.0774. Consider AATCCTCG, for which the binding signal (normalized occupancy) was found to be 0.0791. For the sequence CTTTCCCC, the binding signal (normalized occupancy) turned out to be 0.0708. With CCGACACA, the binding signal (normalized occupancy) came to 0.0823. In the case of AGCGGGTC, the binding signal (normalized occupancy) was 0.0699.

On to CCTGCTGA, for which the binding signal (normalized occupancy) worked out at 0.0756. Consider ATGCCTGA, for which the binding signal (normalized occupancy) was determined as 0.0785. The value for ACCTATGG was 0.0727; that for ACTCCTGC was 0.075. For AAAAACTG the value was 0.0754.

Consider ATCAGGAG, for which the binding signal (normalized occupancy) came to 0.072. For ACGCAACT the value was 0.0755. For AACCGATC, the binding signal (normalized occupancy) came to 0.0743.

As to ACTCTAAT, the binding signal (normalized occupancy) came to 0.0825. The value for TCGCGTCA was 0.0772. In the case of GCTAGATA, the binding signal (normalized occupancy) is 0.076. Turning to AGGTAGAC, the binding signal (normalized occupancy) amounted to 0.0734. Consider GCACGCCA, for which the binding signal (normalized occupancy) is 0.0859.

In the case of AGCTGTTC, the binding signal (normalized occupancy) is 0.0717. For CTATACCC the value was 0.0826; for CGACGGTA, 0.071. In the case of CAAGAGCC, the binding signal (normalized occupancy) is 0.0711. With TATCTCGA, the binding signal (normalized occupancy) amounted to 0.0777. Take CGGGCACG: the binding signal (normalized occupancy) came out at 0.0805.

Turning to TACATTAA, the binding signal (normalized occupancy) was 0.0769.

As for CATCCCTC, the binding signal (normalized occupancy) came to 0.0774.

With ACCGGCCC, the binding signal (normalized occupancy) is 0.0691. Take CTCTTTCA: the binding signal (normalized occupancy) is 0.0697. Take CGCCCGGC: the binding signal (normalized occupancy) stood at 0.0697. GAACGACA: the binding signal (normalized occupancy) is 0.0759.

Regarding CATCGTGG, the binding signal (normalized occupancy) came out at 0.0917. Take GAGCGAGA: the binding signal (normalized occupancy) was found to be 0.074. The value for ATCTGTCA was 0.0756; that for ACCCTTCG was 0.0701. In the case of CGACCACC, the binding signal (normalized occupancy) turned out to be 0.082. The value for GCGTTTGA was 0.0702. For the sequence GATAGCGA, the binding signal (normalized occupancy) was found to be 0.073.

Regarding AATATCGA, the binding signal (normalized occupancy) came to 0.0796. In the case of CCCGGCGA, the binding signal (normalized occupancy) worked out at 0.0723.

Take TACAAGGA: the binding signal (normalized occupancy) is 0.0729. The value for CGACGACG was 0.071; that for CGGTGCAC was 0.0856; that for TACGGCTA was 0.0712. Regarding AAGCTCCA, the binding signal (normalized occupancy) came out at 0.0783. In the case of CTTACACA, the binding signal (normalized occupancy) amounted to 0.0759. For GTAGCTAC the value was 0.0725. Consider AGGTTCTA, for which the binding signal (normalized occupancy) was found to be 0.0755. On to TTGAACAA, for which the binding signal (normalized occupancy) was 0.0742.

Consider CGAGGGCC, for which the binding signal (normalized occupancy) was determined as 0.0729. For GGGAAAAA the value was 0.0741; for CTAATGAG, 0.076; for AGACTCAT, 0.0857. Consider ACCCACAA, for which the binding signal (normalized occupancy) turned out to be 0.0776.

Regarding GGGGCTAC, the binding signal (normalized occupancy) was 0.0715. Consider GCGGCGAC, for which the binding signal (normalized occupancy) was 0.0664. In the case of AAATCGTT, the binding signal (normalized occupancy) amounted to 0.0735. On to ACGATGAC, for which the binding signal (normalized occupancy) amounted to 0.0759.

Regarding ATAAGGGG, the binding signal (normalized occupancy) came to 0.0784. For CTGCTTAC the value was 0.0709. With CCCTAGTA, the binding signal (normalized occupancy) turned out to be 0.0772. The value for GGTCGGAC was 0.0772; that for CCGTAGCA was 0.0754. For ATTCATAA, the binding signal (normalized occupancy) turned out to be 0.0836.

Turning to AGAGTACA, the binding signal (normalized occupancy) was 0.0755. With AGTCAATG, the binding signal (normalized occupancy) was 0.0749.

Consider CATAATTA, for which the binding signal (normalized occupancy) is 0.0816. Consider GACCGCCC, for which the binding signal (normalized occupancy) came to 0.0713. The value for AAAACCTC was 0.0698; that for CACTACGG was 0.0696; that for CAAGCACG was 0.0851. Consider AGTAATAG, for which the binding signal (normalized occupancy) was found to be 0.077. On to CATATTGC, for which the binding signal (normalized occupancy) came to 0.081. On to CGCAGGTC, for which the binding signal (normalized occupancy) amounted to 0.0664. For the sequence TAATACGA, the binding signal (normalized occupancy) amounted to 0.0769. In the case of CGGGGTAC, the binding signal (normalized occupancy) came out at 0.0764. GGACGTCA: the binding signal (normalized occupancy) turned out to be 0.0747. On to CCCTGTAA, for which the binding signal (normalized occupancy) came to 0.076. With GTTATGAA, the binding signal (normalized occupancy) turned out to be 0.0832. For GACGTATC, the binding signal (normalized occupancy) turned out to be 0.0746. For the sequence ATCTAGCC, the binding signal (normalized occupancy) worked out at 0.0726. Consider ACCGTGTA, for which the binding signal (normalized occupancy) was 0.0779. Take ACAGGCAG: the binding signal (normalized occupancy) worked out at 0.0762.

As for CCGGGCAG, the binding signal (normalized occupancy) stood at 0.0656. The value for ACTTGGCT was 0.0687. The value for TAATTGGA was 0.0728.

As for AGAACCGA, the binding signal (normalized occupancy) worked out at 0.0681.

ACCGGCAG: the binding signal (normalized occupancy) came out at 0.0717. In the case of GAGGGTAC, the binding signal (normalized occupancy) amounted to 0.0722. On to TCTATAGA, for which the binding signal (normalized occupancy) worked out at 0.0822. As for GGGTTCGA, the binding signal (normalized occupancy) was 0.0736.

Take AGCGCGGC: the binding signal (normalized occupancy) came out at 0.074. As to ACGCAGGC, the binding signal (normalized occupancy) came out at 0.0747.

As to ACCAGACG, the binding signal (normalized occupancy) is 0.0711.
